Measurements from PubChem BioAssay AID651820 (National Center for Advancing Translational Sciences (NCATS), 2012).
Several values for one entry are separate records, joined by “and”; a condition that tells them apart may be missing. Identical values can stand only once. The campaign covered roughly 340,000 compounds. About 12,000 (3.5%) were called active. The shares of active, inactive and inconclusive entries below differ from those in the screen. The call rests on the fitted dose curve; in most records, active means well fitted inhibition curve with a large enough effect; inconclusive means small, poorly fitted or top-dose-only effect, or another doubt; inactive means no such curve, though single readings can be large or run the other way. Where the call is inconclusive, the potency comes from a doubtful curve fit.

experiment: qHTS Assay for Inhibitors of Hepatitis C Virus (HCV); details: Huh7.5.1 HCVcc-Cre (HCVcc is cell-culture hepatitis C virus) infection, luciferase reporter, 44 h; activity change, negative = inhibition: at 41.8 µM (top of the series) unless noted
Procedure, shortened: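 Whole-lifecycle infectious HCVcc-Cre system; cells 1,000/well, compound then virus (~0.5 moi) added 4 h after plating, 44 h culture. Luciferase read 15 sec following 15 min substrate incubation, room temp.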
On the % scale 0 is the no-effect control and ±100 the full control effect; potency means the concentration at half of the fitted maximal effect; tags describe the fitted curve by direction and shape.

| SMILES | Potency | activity change, negative = inhibition |
| --- | --- | --- |
| O=C(Nc1ccc2c(c1)OCCO2)C1CCCN(S(=O)(=O)c2cccs2)C1 (stereo not given) | inconclusive: 31.6 µM [inhibitor, single point] |  |
| Cc1cc(C)cc(-n2ncc3c2CCCC3NC(=O)c2cc(C)[nH]n2)c1 (stereo not given) | inconclusive: 11.2 µM [inhibitor, partial curve] |  |
| O=C(Nc1ccc(S(=O)(=O)N2CCCC2)cc1)c1ccc([N+](=O)[O-])o1 | active: 2.82 µM |  |
| CCN(CC)S(=O)(=O)c1ccc(NC(=O)C2COc3ccccc3O2)cc1 (stereo not given) | inconclusive: 11.2 µM [inhibitor, partial curve] |  |
| Cc1ccc2cc(C#N)c(NCc3ccco3)nc2c1 | inconclusive: 1.41 µM [inhibitor, full curve, poor fit] |  |
| Cc1cc(C)c(C)c(S(=O)(=O)N2CCC(C(=O)NNC(=O)c3ccccc3O)CC2)c1C | active: 7.08 µM |  |
| CSc1nc2ccccc2cc1/C=C(\C#N)c1cccc(Cl)c1 | inconclusive: 14.1 µM [inhibitor, partial curve] |  |
| COc1ccc(O)c(C(=O)c2cnn(-c3ccccc3)c2)c1 | inconclusive: 3.98 µM [inhibitor, single point] |  |
| CCN(CC(=O)Nc1cc(Cl)ccc1C)c1ncnc2sc(C)c(C)c12 | active: 25.1 µM |  |
| O=C(CC1CCCCC1)N1CCCC(c2nc(-c3ccc(S(=O)(=O)N4CCCC4)cc3)no2)C1 (stereo not given) | inconclusive: 22.4 µM [inhibitor, single point] |  |
| O=C(O)c1ccc(Nc2nc3ccccc3nc2NS(=O)(=O)c2cccs2)cc1 |  | inactive: 0.553% |
| Cc1ccc(C(=O)C2CCN(CC(=O)NC3CCCCC3)CC2)cc1 | inconclusive: 31.6 µM [inhibitor, single point] |  |
| C[C@@H](CSc1ccc(Br)cc1)CN1CC[C@H](C(C)(C)C)CCC1=O | inconclusive: 22.4 µM [inhibitor, single point] |  |
| CSc1ccc(C(=O)C2CCCN(C(=O)CCc3c(C)nn(C)c3C)C2)cc1 (stereo not given) | inconclusive: 7.08 µM [inhibitor, full curve, poor fit] |  |
| C=C(C)CNC(=S)N/N=C/c1c(F)cccc1F | inconclusive: 31.6 µM [inhibitor, single point] |  |
| CCc1ccccc1N(CC)C(=O)CCc1nc(-c2ccc(C)cc2)no1 | inconclusive: 12.6 µM [inhibitor, single point] |  |
| O=C(Cc1cccs1)N/N=C/c1ccco1 |  | inactive: -0.83% |
| COc1ccc(OC)c(CCNC(=O)C(C)n2nc(C)c3c(C)n(-c4ccccc4)nc3c2=O)c1 (stereo not given) | inconclusive: 22.4 µM [inhibitor, single point] |  |
| Cc1cccc(-c2nc3c(c(SCC(=O)N4CCOCC4)n2)CCCC3)c1 | inconclusive: 5.62 µM [inhibitor, single point] |  |
| O=C(NCCc1ccccc1)c1cc(-c2ccccc2)c(N2CCOCC2)s1 | inconclusive: 22.4 µM [inhibitor, single point] |  |
| NC(=S)NN=C1c2ccccc2-c2ccccc21 | active: 6.31 µM |  |
| COc1ccc(NC(=O)CCOc2cc(C)ccc2C)cc1S(=O)(=O)N1CCCCC1 | inconclusive: 8.91 µM [inhibitor, partial curve] |  |

| SMILES | Potency | activity change, negative = inhibition |
| --- | --- | --- |
| O=C(NC1CCN(Cc2ccccc2)CC1)C1CCN(S(=O)(=O)c2ccccc2)CC1 | inconclusive: 12.6 µM [inhibitor, partial curve, poor fit] |  |
| Fc1cccc(Nc2ncnc3sc4c(c23)CCC4)c1 | inconclusive: 20 µM [inhibitor, single point] |  |
| Cn1c(=N)n(CC(=O)c2ccc(Cl)c(Cl)c2)c2ccccc21 | inconclusive: 11.2 µM [inhibitor, partial curve] |  |
| Cc1nc2c(cc1C(=O)N/N=C/c1ccc(O)c(O)c1)c(=O)n(C)c(=O)n2C | inconclusive: 31.6 µM [inhibitor, single point] |  |
| COc1ccc(N2CCN(c3ncnc4scc(-c5ccc(C)cc5)c34)CC2)cc1 | inconclusive: 31.6 µM [inhibitor, single point] |  |
| Clc1ccc2sc(C3CCNCC3)nc2c1 | inconclusive: 22.4 µM [inhibitor, single point] |  |
| Cc1cccnc1NC(=S)Nc1ccc(Cl)c(Cl)c1 | inconclusive: 31.6 µM [inhibitor, single point] |  |
| COc1ccc2cc(S(=O)(=O)N3CCCCC3)ccc2c1S(=O)(=O)N1CCCCC1 | inconclusive: 12.6 µM [inhibitor, partial curve] |  |
| CCCCCCCCCCOC(=O)Cn1c(COc2ccc(Cl)cc2)[n+](C)c2ccccc21 | inconclusive: 10 µM [inhibitor, single point] |  |
| O=c1c(/C=N\NS(=O)(=O)c2ccccc2)coc2ccc(Cl)cc12 |  | inactive: -7.53% |
| COc1cc(/C=C/C(=O)c2c(O)n(CCc3ccccc3)c(=O)[nH]c2=O)ccc1O |  | inactive: -2.03% |
| Cc1ccc2nc(N3CC(C)OC(C)C3)nc(-c3ccccc3)c2c1 (stereo not given) | inconclusive: 3.16 µM [inhibitor, full curve, poor fit] |  |
| O=C(C[n+]1cc(-c2ccc(Cl)cc2)n2c1CCC2)Nc1nc(-c2ccccc2)cs1 | inconclusive: 4.47 µM [inhibitor, full curve] |  |
| COCCCNC(=O)CC1C[C@H](C(=O)N2CCCCC2)[C@@]2(C)c3[nH]c4ccc(OC)cc4c3CCN2C1=O (stereo not given in full) | inconclusive: 25.1 µM [inhibitor, single point] |  |
| COc1ccccc1C(=O)COC(=O)Cc1c[nH]c2ccccc12 | inconclusive: 10 µM [inhibitor, single point] |  |
| COc1ccc2c(c1)c1nnc(SCC(=O)N3C(C)CCCC3C)nc1n2C (stereo not given) | active: 8.91 µM |  |
| Cc1ccc2nc(Nc3ccccc3)c(/C=N/O)c(=O)n2c1 | inconclusive: 22.4 µM [inhibitor, single point] and inconclusive: 31.6 µM [inhibitor, single point] |  |
| Clc1ccc(-n2nnnc2Sc2ncnc3sccc23)cc1 | inconclusive: 22.4 µM [inhibitor, single point] |  |
| N#Cc1cc[n+](CC(=O)c2ccc(NC(=O)c3ccccc3)cc2)cc1 |  | inactive: 14.4% |
| Cc1c(C)[n+](=O)c2c(n1[O-])C(Br)CCC2Br (stereo not given) |  | inactive: 9.54% |
| C=CCN=C1NN=C(c2cc(C)n(CC=C)c2C)CS1 | inconclusive: 31.6 µM [inhibitor, single point] |  |
| Cc1cccc(Nc2c([N+](=O)[O-])cc(C(=O)N3CC(=O)Nc4ccccc43)cc2[N+](=O)[O-])c1 | inconclusive: 22.4 µM [inhibitor, single point] |  |

| SMILES | Potency | activity change, negative = inhibition |
| --- | --- | --- |
| COc1ccc(Nc2nc3c(C)cccn3c(=O)c2C=O)cc1 | inconclusive: 2 µM [inhibitor, partial curve] |  |
| CCOC(=O)c1ccc(NC(=O)c2ccc(CO)c(C(=O)NC3CCN(C(=O)OCC)CC3)c2)cc1 | inconclusive: 10 µM [inhibitor, partial curve, poor fit] |  |
| CCc1ccc2nc(NC(=O)CCCc3cccs3)sc2c1 |  | inactive: 0.204% |
| CC(C)c1ccc(CNc2ccc(N3CCOCC3)cc2)cc1 | inconclusive: 22.4 µM [inhibitor, single point] |  |
| COc1ccc(C2CC(O)(c3ccccc3)Oc3cc(OC)ccc32)cc1 (stereo not given) | active: 4.47 µM |  |
| CCOC(=O)c1sc2nc(N3CCOCC3)c3c(c2c1N)CCC3 | inconclusive: 4.47 µM [inhibitor, full curve] |  |
| Fc1ccc(-c2csc3ncnc(Nc4ccc(N5CCOCC5)cc4)c23)cc1 | inconclusive: 7.94 µM [inhibitor, partial curve] |  |
| Cc1ccc(NC(=O)O/N=C/c2c(C)nn(C(C)(C)C)c2C)cc1Cl |  | inactive: -9.96% |
| CN(/N=C/c1cc(Br)cc(Br)c1O)c1ccccc1 | inconclusive: 12.6 µM [inhibitor, single point] |  |
| O=C(NC(C(=O)N/N=C/c1cc([N+](=O)[O-])ccc1O)c1n[nH]c(=O)c2ccccc12)c1ccccc1 (stereo not given) |  | inactive: 2.64% |
| O=C(Nc1nc2cc3c(cc2s1)OCCO3)c1ccco1 | inconclusive: 31.6 µM [inhibitor, single point] |  |
| COc1ccc(CCCc2nnc(SCC(=O)Nc3ccc(OC)cc3)o2)cc1 | inconclusive: 31.6 µM [inhibitor, single point] |  |
| S=C(c1ccc(-c2ccc(Cl)cc2)o1)N1CCCCC1 | inconclusive: 10 µM [inhibitor, partial curve] |  |
| Cc1ccc2cc3cc(C(=O)NCCCN4CCCC4=O)oc3nc2c1 | inconclusive: 20 µM [inhibitor, single point] |  |
| COc1ccc(-n2nnnc2S(=O)(=O)CC(=O)N2CCCCC2)cc1 | inconclusive: 20 µM [inhibitor, single point] |  |
| Nc1nc(NCc2ccccc2)nc(NCCO)c1[N+](=O)[O-] | inconclusive: 31.6 µM [inhibitor, single point] |  |
| COc1ccc(C2(c3ccc(OC)cc3)NC(=O)N(CC(=O)NCC(C)c3ccccc3)C2=O)cc1 (stereo not given) | inconclusive: 10 µM [inhibitor, partial curve] |  |
| Cn1c(=O)cc(OCC(=O)N2CCN(c3cccc(C(F)(F)F)c3)CC2)c2ccccc21 | inconclusive: 17.8 µM [inhibitor, single point] |  |
| COc1ccccc1N1C(=O)S/C(=C\c2cc(C)n(C)c2C)C1=O | inconclusive: 0.562 µM [inhibitor, full curve, poor fit] |  |
| CC(=O)c1c(C)nc2cc(Cl)ccc2c1N | inconclusive: 35.5 µM [inhibitor, partial curve, poor fit] |  |
| Cc1onc(-c2c(F)cccc2Cl)c1C(=O)OCC(=O)N1C(C)CCCC1C (stereo not given) | inconclusive: 35.5 µM [inhibitor, partial curve, poor fit] |  |
